Laboratory results: patent US11542275B2, “Substituted imidazolidin-2-one derivatives as PRMT5 inhibitors” (Aurigene Discovery Technologies Limited, priority 2018, dated 2023)

Biological target: PRMT5/MEP50 Complex (Homo sapiens (Human), UniProt O14744)
Assay: PRMT5 inhibition based on TR-FRET assay
Type: biochemical
Details: 32 nM PRMT5:MEP50 complex, 50 nM Histone-H4 peptide, 1 μM SAM, 90 minutes at room temperature
Excerpt: Protein arginine methyltransferase 5 (PRMT5) is a type II arginine methyltransferase that catalyze mono- and symmetric demethylation on arginine residues of histone or non-histone proteins in presence of S-adenosylmethionine (AdoMet or SAM) a cofactor responsible for donating the methyl group. PRMT5 is reported to be overexpressed in several human cancers. To identify compounds that inhibit the PRMT5 and decrease its activity, a TR-FRET based assay has been established. Time-resolved fluorescence resonance energy transfer (TR-FRET) HTS assays are homogeneous proximity assays where the interaction of two dye-labeled binding partners is detected by the energy transfer between a donor and an acceptor dye, and the subsequent light emission by the acceptor dye. PRMT5 catalyzes Histone H4 peptide which is biotin tagged to the Lysine amino acid at carboxyl end, in presence of S-adenosyl-1-methionine (SAM) to methylate the peptide. The antibody specific to mono methylated H4 peptide (H4R3) with Ig conjugate binds to the methylated peptide, indirectly binding to the Europium lanthanide. SureLight Allophycocyanin-Streptavidin binds to the biotin tag of the peptide, therefore accepting the energy transferred from the Europium lanthanide. This energy transfer between Europium to SureLight Allophycocyanin is a direct measure of the activity/inhibition of the PRMT5 enzyme.
Assay buffer: 20 mM BICINE (pH 7.6), 25 mM NaCl, 2 mM DTT, 0.01% Tween-20 and 0.01% BSA.
The compound dilutions were prepared as 7.5% DMSO stock solutions in assay buffer. To 2 μL (7.5×) of test compound, 5 μL of PRMT5 enzyme prepared in assay buffer (Final concentration of 32 nM in 15 μL reaction volume) was added and allowed for 30 minutes pre-incubation time in a white polystyrene 384-well plate at room temperature. […] The plates were then read on Victor-3 with Excitation at 340 nm and Emissions collected at 615 and 665 nm in TR-FRET protocol. […]

| SMILES | IC50 [µM] |
| --- | --- |
| O=C1N(Cc2ccc(C3CC4CCC(C3)O4)nc2)CCN1C[C@H](O)CN1CCc2ccccc2C1 (stereo partly drawn) [Compound 74, 1-((6-(8-oxabicyclo[3.2.1]octan-3-yl)pyridin-3-yl)methyl)-3-((R)-3-(3,4-dihydroisoquinolin-2(1H)-yl)-2-hydroxypropyl)imidazolidin-2-one] | 0.026 |
| CC(=O)N1C2CCC1CC(c1ccc(CN3CCN(C[C@H](O)CN4CCc5ccccc5C4)C3=O)nc1)C2 (stereo partly drawn) [Compound 72, 1-((5-(8-acetyl-8-azabicyclo[3.2.1]octan-3-yl)pyridin-2-yl)methyl)-3-((R)-3-(3,4-dihydroisoquinolin-2(1H)-yl)-2-hydroxypropyl)imidazolidin-2-one] | 0.019 |
| CC(=O)N1C2CCC1CC(c1ccc(CN3CCN(C[C@H](O)CN4CCc5ccccc5C4)C3=O)cn1)C2 (stereo partly drawn) [Compound 73, 1-((6-(8-acetyl-8-azabicyclo[3.2.1]octan-3-yl)pyridin-3-yl)methyl)-3-((R)-3-(3,4-dihydroisoquinolin-2(1H)-yl)-2-hydroxypropyl)imidazolidin-2-one] | 0.039 |
